Holding throughout (experiment): Primary Screen for Target Class Profiling of Small Molecule Inhibitors of Methyltransferases
Test [1] has as its target Glycine N-methyltransferase (Homo sapiens) (UniProt Q14749). The conditions noted are these: purified enzyme, MTase-Glo SAH luminescence; measured here: GNMT inhibition; at 40 µM; stronger effect = lower value. The gist of the method: (§1)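 Each enzyme was assayed with SAM and its substrate. SAH formation detected by MTase-Glo luminescence; single-point 40 uM screen[…].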

Test [2] deals with Guanidinoacetate N-methyltransferase (Homo sapiens) (UniProt Q14353). The conditions noted are these: purified enzyme, MTase-Glo SAH luminescence; measured here: GAMT inhibition; at 40 µM; stronger effect = lower value. The method in brief: as §1
Test [3] deals with Histamine N-methyltransferase (Homo sapiens) (UniProt P50135). The conditions noted are these: purified enzyme, MTase-Glo SAH luminescence; measured here: HNMT inhibition; at 40 µM; stronger effect = lower value. The gist of the method:
as §1

Test [4] addresses Nicotinamide N-methyltransferase (Homo sapiens) (UniProt P40261). The conditions noted are these: purified enzyme, MTase-Glo SAH luminescence; measured here: NNMT inhibition; at 40 µM; stronger effect = lower value. The gist of the method:
as §1

Test [5] concerns the target Phenylethanolamine N-methyltransferase (Homo sapiens) (UniProt P11086). The conditions noted are these: purified enzyme, MTase-Glo SAH luminescence; measured here: PNMT inhibition; at 40 µM; stronger effect = lower value. The gist of the method: as §1

The values below come from PubChem BioAssay AID1745853 (National Center for Advancing Translational Sciences (NCATS), 2022).

The other results are listed elsewhere or left out. These are further read-outs of the screen, such as a control signal, another cell line or another target. No call is given for them.
% is set by controls: 0 for no effect and ±100 for the full control effect.

In the case of `C=C1CCC2[C@@](C)(C=O)CCC[C@]2(C)[C@H]1CC/C(C)=C/CO` (stereo partly drawn), the activity change, negative = inhibition in test [1] is -6.18%; in test [2], -4.17%; in test [3], 3.27%; in test [4] it was -23.5%; in test [5] it was -5.58%.
The matching figures for `Cc1ccc2c(c1)c(-n1cccc1)c1n2CC(C)(C(=O)NC2CCCCC2)N(Cc2ccccn2)C1=O` (stereo not drawn): -15.1%, -1.43%, -12.2%, -32.7% and -8.5%.
The matching figures for `CCCn1c(=O)c2ccc(C(=O)NC3CCCC3)cc2n2c(=O)n(CC(=O)NC(C)(C)C)nc12`: 3%, 5.2%, 5.37%, -2.67% and 0.146%.
In the same order, the values of `CC(C)(O)C1CC(=O)C2(C)C(CCC3(C)C(c4ccoc4)OC(=O)C4OC432)C12CCC(=O)OC2` (stereo not drawn) are 4.71%, 5.31%, 9.05%, -8.25% and 3.54%.
Turning to `CC(=O)N[C@@H](CCCCN)C(=O)N(C)[C@@H](CC(C)C)C(=O)N[C@H](C(=O)N(C)[C@@H](Cc1ccccc1)C(=O)N[C@H](Cc1ccccc1)C(N)=O)C(C)C`, the activity change, negative = inhibition was -1.26% in test [1]; 0.756% in test [2]; 14% in test [3]; -11.5% in test [4]; 0.663% in test [5].
In the same order, the values of `COc1ccccc1CN1C(=O)c2cc3c(OC)ccc(OC)c3n2CC1(C)C(=O)NC1CCCC1` (stereo not drawn) are 6.3%, 0%, 10.6%, 4.24% and 1.57%.
As for `COc1ccc(Cl)cc1NC(=O)N1CCn2cccc2C1C` (stereo not drawn), the activity change, negative = inhibition is -11% in test [1]; 0.191% in test [2]; -12.7% in test [3]; -24% in test [4]; -14% in test [5].
`Cn1cc(CN2C[C@H](C(=O)Nc3nccs3)C[C@@H]2c2cccc(C(F)(F)F)c2)cn1`: the activity change, negative = inhibition in test [1] was -6.58%; in test [2] it was 0.778%; in test [3] it was -0.65%; in test [4], -14.2%; in test [5], -5.78%.
Take `OCCN1CCN(C(c2ccc(Cl)cc2Cl)c2sc3nc(-c4ccco4)nn3c2O)CC1` (stereo not drawn): the activity change, negative = inhibition is 5.09% in test [2], -8.19% in test [4] and 5.92% in test [5].
On to `COc1ccc(-c2n[nH]n3c2nc(=O)c2ccc(C(=O)NCc4ccc(C(C)C)cc4)cc23)cc1`, for which the activity change, negative = inhibition in test [1] is 4.04%; in test [2], 0.798%; in test [3], 4.36%; in test [4] it was -2.67%; in test [5], -0.372%.
As to `Cc1ccc(CCNC(=O)CCn2ccc3cc(S(=O)(=O)N4CCCC4)ccc32)cc1`, the activity change, negative = inhibition in test [1] was -1.68%; in test [2] it was 0%; in test [3] it was 2.87%; in test [4] it was -5.23%; in test [5], -1.89%.
For the compound `Cn1c(=O)c2ccc(C(=O)NC3CCCC3)cc2n2c(SCC(=O)NC3CCCCC3)nnc12`, the activity change, negative = inhibition is -3% in test [1]; -1.23% in test [2]; 4.57% in test [3]; 3% in test [4]; 5.51% in test [5].
Turning to `Cc1cccc(Nc2cc(Cl)nc(SCC(=O)O)n2)c1C`, the activity change, negative = inhibition is -6.94% in test [1]; -3.62% in test [2]; 4.28% in test [3]; -11.8% in test [4]; 0.403% in test [5].
In the same order, the values of `CCOc1cc2ncc(C#N)c(Nc3ccc(OCc4ccccn4)c(Cl)c3)c2cc1NC(=O)/C=C/CN(C)C` are -8.19%, 11.1%, 2.37%, -9.5% and 1.93%.
The matching figures for `Cc1cc(NC(=O)c2cccc(NC(=O)/C=C/CN(C)C)c2)ccc1Nc1nccc(-c2cccnc2)n1`: -93.2%, 3.63%, -83%, -11.9% and -2.74%.
Turning to `CC1(C(=O)NC2CCCCCCC2)Cn2c(cc3occc32)C(=O)N1Cc1ccc(Cl)cc1` (stereo not drawn), the activity change, negative = inhibition in test [1] is -1.5%; in test [2], 0%; in test [3], 1.18%; in test [4], -3.22%; in test [5], -0.273%.
The matching figures for `CC(C)CCn1c(=O)c2ccccc2n2c(=O)n(Cc3cccc(Cl)c3)nc12`: 0.852%, 0.421%, 5.91%, -4.18% and 1.03%.
Regarding `CC(C)Cn1c(=O)c2ccccc2n2c(CCC(=O)NCc3ccc(Cl)cc3)nnc12`, the activity change, negative = inhibition in test [1] is -10.2%; in test [2], -3.02%; in test [3], -4.78%; in test [4], -12.1%; in test [5], -9.62%.
In the same order, the values of `CCCCN1C(=O)c2cc(C(=O)NCc3ccc(C)cc3)nn2CC1(C)C(=O)NC1CCCC1` (stereo not drawn) are 6.81%, 0%, 1.06%, 4.66% and 7.11%.
With `Oc1cc(CNC(=S)/C=C/c2cc(O)c(O)c(Br)c2)cc(O)c1O`, the results for the activity change, negative = inhibition in test [2], in test [4] and in test [5] were -0.676%, -14.9% and 0.095%, respectively.
For `CC[C@H](C)[C@H]1O[C@]2(CC[C@@H]1C)C[C@@H]1C[C@@H](C/C=C(\C)[C@@H](O[C@H]3C[C@H](OC)[C@@H](O[C@H]4C[C@H](OC)[C@@H](O)[C@H](C)O4)[C@H](C)O3)[C@@H](C)/C=C/C=C3\CO[C@@H]4[C@H](O)C(C)=C[C@@H](C(=O)O1)[C@]34O)O2`, the activity change, negative = inhibition in test [1] is -1.94%; in test [3], 6.72%.
On to `O=C(CCn1ccc2cc(S(=O)(=O)N3CCCCC3)ccc21)NC1CC1`, for which the activity change, negative = inhibition turned out to be 4.86% in test [1]; 5.94% in test [2]; 7.35% in test [3]; 4.45% in test [4]; 4.51% in test [5].
Regarding `OCCC1CN(c2nccc(-c3ccccn3)n2)CCN1Cc1ccoc1` (stereo not drawn), the activity change, negative = inhibition in test [1] is -10.8%; in test [2], -11.2%; in test [3], -4.29%; in test [4] it was -11.9%; in test [5], -9.18%.
With `CC(C)n1cc(CN2C[C@@H]3C(=O)N(Cc4ccc5c(c4)OCO5)C(=O)[C@@H]3C2)c2ccccc21`, the activity change, negative = inhibition in test [1] was -2.83%; in test [2], -7.48%; in test [3], -2.45%; in test [4] it was -8.45%; in test [5] it was -8.04%.
In the same order, the values of `O=C(NC1CCCC1)c1ccc(OC2CCN(C(=O)C3CCCO3)CC2)c(Cl)c1` (stereo not drawn) are -6.49%, -3.91%, -2.32%, -12.2% and -2.03%.
With `CCN(CC)C(=O)[C@@H]1C[C@@H](NC(=O)c2ccn(CC)c(=O)c2)CN1C(C)=O`, the activity change, negative = inhibition in test [1] is -1.84%; in test [2] it was 2.16%; in test [3], 3.18%; in test [4], -1.51%; in test [5] it was -2.53%.
The matching figures for `CC1(C)CCCC2(C)C=C(C(=O)O)C(O)CC12` (stereo not drawn): 5.64%, 5.67%, 3.18%, -10% and 4.73%.
As to `COc1cc(OC)c(/C=C2/C(=O)Nc3ccccc32)c(OC)c1`, the activity change, negative = inhibition in test [1] is -30.6%; in test [2], -7.05%; in test [3], -13.4%; in test [4], -15.7%; in test [5], -11.7%.
Take `OCc1ccc(O[C@@H]2O[C@H](CO)[C@@H](O)[C@H](O)[C@H]2O)cc1`: the activity change, negative = inhibition in test [1] was -1.51%; in test [2], -6.99%; in test [3], 3.3%; in test [4], -15.5%; in test [5] it was -8.31%.
